PubChem BioAssay AID1347073 (National Center for Advancing Translational Sciences (NCATS), 2019)
About 200 (0.44%) of roughly 45,000 compounds were called active. Roughly 7% stayed inconclusive and do not appear here. Calls follow the shape of the dose curve; as a rule, active = well fitted activation curve with a large enough effect; inconclusive = small, poorly fitted or top-dose-only effect; inactive = no such curve, though single readings can be large or run the other way. The list shows a part of the results.

Assay: qHTS of TDP-43 Inhibitors: NCGC Sytravon Library Screen; also: 0% is about no effect; nearly all actives have a fitted effect of over 55% in size
Settings: yeast TDP-43 toxicity rescue, BacTiter-Glo growth, 24 h; series mostly up to 46.1 µM; growth rescue (activation): at the top concentration
How it was run: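 TDP-43-expressing yeast, pregrown in raffinose, seeded at OD600 0.02 in galactose medium with compound for 24 hr at 30 deg C. Growth read by BacTiter-Glo luminescence, so rescue of toxicity appears as activation.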

Compound | growth rescue (activation)
CCOc1cc(C)c(Cl)cc1S(=O)(=O)NC1CC(C)(C)NC(C)(C)C1 | inactive: 5.96%
C=CCn1c(SCC(=O)Nc2cccnc2Cl)nnc1-c1ccccc1F | inactive: -5.57%
CN(CC(=O)Nc1c(Cl)cccc1Cl)C(=O)Cc1ccsc1 | inactive: -3.4%
C=CCNC(=S)NNC(=O)c1cc(O)ccc1O | inactive: -9.52%
N#CC(Cc1ccc(OC(F)F)cc1)c1nc2ccccc2[nH]1 (centres undefined) | inactive: -12.2%
CCN(c1ccccc1)S(=O)(=O)c1ccc(Cl)c(NC(=O)CN(C)C2CCN(C)CC2)c1 | inactive: 7.77%
CCOC(=O)CCC(=O)Nc1ccc([N+](=O)[O-])cc1C | inactive: -7.89%
O=C(C1CCCO1)N1CCN(C(=S)Nc2ccc(F)c(Cl)c2)CC1 (centres undefined) | inactive: -3.31%
O=C(Nc1cccc(OCC(=O)N2CCOCC2)c1)c1cccc([N+](=O)[O-])c1 | inactive: 11.3%
COC(=O)c1sc(NC(=O)/C=C/c2ccc(C)cc2)nc1C | inactive: 12.5%
COc1ccc(S(=O)(=O)N2C(=O)/C(=C3\SC(N)=NC3=O)c3ccccc32)cc1 | inactive: 21.8%
CCOc1cc(N2CCOCC2)c(OCC)cc1NC(=O)COC(=O)c1c(CC)noc1C | inactive: 5.69%
O=C1CCCN1S(=O)(=O)c1ccccc1 | inactive: -10.8%
O=C(NC(Cc1c[nH]c2ccccc12)C(=O)N1CCOCC1)c1cccs1 (centres undefined) | inactive: -0.206%
CCOc1cc(N2CCOCC2)c(OCC)cc1NC1=NCCCCC1 | inactive: 26.5%
COc1ccc(S(=O)(=O)N2CCN(C)CC2)cc1NC(=O)c1ccccc1 | inactive: 4.61%
Cc1cc(C)c(C)c(S(=O)(=O)N2CCN(CC(=O)Nc3ccc([N+](=O)[O-])cc3)CC2)c1C | inactive: 19.9%
COC(=O)Cc1c(C)c2ccc(OCC(=O)c3ccc(OC)c(OC)c3)cc2oc1=O | inactive: -6.79%
COC(=O)c1ccc(/C=C/C(=O)c2cccc(OC)c2)cc1 | inactive: 22.4%
CCOc1cc(NC(=S)NCc2ccco2)c(OCC)cc1NC(=O)CC(C)C | inactive: 7.63%
O=C(CCSc1nc(-c2ccco2)cc(C(F)(F)F)n1)N1CCCc2ccccc21 | inactive: 7.8%
Cc1cccc(NC(=O)C2C3C=CC(O3)C2C(=O)O)c1C (centres undefined) | inactive: -2.13%
C(=N\N1CCOCC1)/c1cn(-c2ccccc2)nc1-c1ccccc1 | inactive: -21%
COc1ccc(NC(=O)c2c3c(nc4ccccc24)CCN(Cc2ccccc2)C3)c(OC)c1 | inactive: 7.17%
CCCCc1n(CC(=O)c2ccc(Cl)cc2)c2ccccc2[n+]1C | inactive: -12.2%
O=C(Cn1cc(C(F)(F)F)cc(Cl)c1=O)Nc1cc(S(=O)(=O)N2CCOCC2)ccc1Cl | inactive: -0.63%

Compound | growth rescue (activation)
Cc1nnc(SCC(=O)NNC(=O)c2ccc(Br)cc2)n1C | inactive: -9.78%
O=C(CSc1nc2ccccc2o1)Nc1nc(-c2ccccc2)c(-c2ccccc2)s1 | inactive: 16.4%
Cc1ccccc1C1CC(c2cccs2)=NN1S(C)(=O)=O (centres undefined) | inactive: 1.57%
CCn1cc(C(=O)O)c(=O)c2cnc(N3CCN(C(=S)Nc4ccccc4)CC3)nc21 | inactive: 7.71%
Cc1c(N2C(=O)C3C4C=CC(C4)C3C2=O)c(=O)n(-c2ccccc2)n1C (centres undefined) | inactive: 10.4%
CCOc1ccccc1NC(=O)Cc1csc(COc2cccc(C)c2)n1 | inactive: 6.68%
COCCN(C(=O)c1csnn1)C(C(=O)NC1CCCCC1)c1ccc(Cl)cc1 (centres undefined) | inactive: -3.86%
COc1cccc(C2C(C(=O)c3cc4ccccc4o3)=C(O)C(=O)N2c2cc(C)on2)c1OC (centres undefined) | inactive: 8.39%
CC1(C)CC(CCNS(=O)(=O)c2ccccc2)(c2ccccc2)CCO1 (centres undefined) | inactive: 3.13%
COc1ccccc1-c1cc2nc(C)c(CCC(=O)NCc3ccc(F)cc3)c(C)n2n1 | inactive: 19%
COc1ccc(C2=NC(CO)(CO)CO2)cc1 | inactive: 10.1%
Cc1ccc(N2C(=O)NC(NS(=O)(=O)c3ccccc3)(C(F)(F)F)C2=O)cc1 (centres undefined) | inactive: 16.3%
CCOC(=O)CSc1nc2c(cnn2-c2ccc(F)cc2)c(=O)[nH]1 | inactive: 15.8%
Cc1ccc(NC(=O)c2cncc(Br)c2)cc1S(=O)(=O)N(C)C | inactive: 4.56%
CN(C)C(=S)SCCn1c(N)nc(N(C)C)nc1=O | inactive: 7.56%
C/C(=N\Nc1ccc(F)cc1F)c1ccc(Br)s1 | inactive: 23.8%
COc1ccc(C2C=C(C)Nc3nc4ccccc4n32)cc1 (centres undefined) | inactive: -35.3%
CCc1nc2c(OCCOc3ccc(F)cc3)cccn2c1N(C)C(=O)c1cccs1 | inactive: -19.9%
CC1=C(C(=O)NC2CC(C)(C)Cc3c2cnn3-c2ccc(C)cc2)OCCO1 (centres undefined) | inactive: 31.1%
Cc1cccc(CNC(=O)CC2C(=O)NCCN2C2CCCC2)c1 (centres undefined) | inactive: 7.71%
COc1ccccc1OCC(=O)Nc1ccc(S(=O)(=O)N2CCN(C)CC2)cc1 | inactive: 2.64%
CCc1nnc(NC(=O)CCn2cnc3ccccc3c2=O)s1 | inactive: 1.26%
Cc1ccc(N(CCC(=O)NC(C)(C)C)S(=O)(=O)c2ccc(C)cc2)cc1 | inactive: 11.3%
CC(=O)OCCNC(=O)Cn1cnc2c1c(=O)n(C)c(=O)n2C | inactive: 11.5%
Oc1ccc(N2CCN(Cc3cc4c(cc3Br)OCCO4)CC2)cc1 | inactive: 4.96%
CC(C)(C)C1CCC(C(=O)NCCc2ccc(S(N)(=O)=O)cc2)CC1 (centres undefined) | inactive: 12.1%

Compound | growth rescue (activation)
C=CCN(C(=O)CCC(=O)Nc1cc(C)on1)C(C(=O)NC1CCCC1)c1ccc(C)cc1 (centres undefined) | inactive: -15.9%
COC(=O)c1cc(OC)c(OC)cc1NC(=O)Nc1cccc(C(C)=O)c1 | inactive: -3.88%
COc1ccc2nc3ccccc3nc2c1NC(=O)c1ccc(Br)cc1 | inactive: 8.57%
Cc1ccc(-n2nc(CC#N)c(C#N)c2N)cc1Cl | inactive: -8.34%
CCc1ccc(S(=O)(=O)N2CCCC(N3CCN(c4ccc(OC)cc4)CC3)C2)cc1 (centres undefined) | inactive: 14.6%
CC(C)(C)C(=O)Nc1ccc(N2CCN(S(C)(=O)=O)CC2)cc1 | inactive: 1.76%
CCOC(=O)c1cnc2c(Cl)c(Cl)ccc2c1NCCN1CCOCC1 | inactive: 4.15%
COc1cc(/C=C/C(=O)O)ccc1OS(=O)(=O)c1ccc(C)cc1 | inactive: 1.99%
Cc1cc(NS(=O)(=O)c2ccc(NC(=O)CSc3nnc(-c4ccco4)n3N)cc2)nc(C)n1 | inactive: 6.46%
CCCS(=O)(=O)N1CCC(C(=O)NCCCN(CC)c2cccc(C)c2)CC1 | inactive: 34.3%
COc1ccc(C2=Nc3ccccc3OC2)cc1 | inactive: 23.2%
O=C(COC(=O)C1C2CC3OC(=O)C1C3C2)Nc1ccc(F)cc1 (centres undefined) | inactive: 16%
CC1CCCCC1NC(=O)c1ccc(S(=O)(=O)NNC(=O)c2ccncc2)cc1 (centres undefined) | inactive: -2.45%
Cc1ccc(-c2nn(-c3ccccc3)cc2C(=O)Nc2cccc(S(=O)(=O)N3CCOCC3)c2)cc1 | inactive: 6.37%
O=C(CCc1ccccc1)NNC(=O)c1ccc(F)cc1 | inactive: 4.8%
CC(C)c1ccc2[nH]c3nc(SCC(=O)N4CCOCC4)nnc3c2c1 | inactive: 16.9%
COc1ccc(Cl)cc1NC(=O)NC(C)C(C)(C)C (centres undefined) | inactive: 16.2%
Cc1c(C(C)C)c(=O)n(-c2ccc(S(=O)(=O)NC3CCCCC3)cc2)n1C | inactive: -11.3%
Cc1cc(=O)oc2cc(OC(C)C(=O)Nc3ccc(N4CCCCC4)cc3)ccc12 (centres undefined) | inactive: -28.5%
O=C1CC(CC(=O)N/N=C/c2ccccc2[N+](=O)[O-])=NN1 | inactive: 17.1%
COc1ccccc1C(NC(=O)C1CCN(CCOc2ccccc2)CC1)c1ccccn1 (centres undefined) | inactive: 11.8%
COc1ccc(N/N=C(C)/C(=N/O)C(=O)Nc2ccccc2)cc1 | inactive: 25.5%
CCOc1cccc(/C=N/Nc2ccc(S(=O)(=O)N(CC)CC)cn2)c1O | inactive: 6.49%
COc1ccccc1C(=O)Nc1ccccc1C(=O)N1C(C)CCCC1C (centres undefined) | inactive: 8.38%
Cc1cnccc1CNC(=O)CC1C(=O)NCCN1CC(C)(C)C (centres undefined) | inactive: -5.23%
COCCCN(C(=S)Nc1c(C)cc(C)cc1C)C(C)c1ccncc1 (centres undefined) | inactive: 21.1%

Compound | growth rescue (activation)
O=c1nc(Nc2ccccc2)sc2ccc([N+](=O)[O-])cc12 | inactive: -1.43%
CC(C)c1nnc(NC(=O)c2cc3cc(Br)ccc3oc2=O)s1 | inactive: 15.7%
CCOC(=O)c1cc2[nH]c3ccccc3c2[n+](-c2ccc([N+](=O)[O-])cc2)c1C | inactive: 4.13%
Cc1cc(C(F)(F)F)nc(CCNCc2c(C(=O)N3CCCC3)nc3ccccn23)n1 | inactive: -15.8%
CCCCCSc1nc2c(cnn2-c2ccc(F)cc2)c(=O)[nH]1 | inactive: -5.26%
C=CCNc1nc(Nc2ccc(OC)c(OC)c2)c2sc(-c3ccccc3)cc2n1 | inactive: 14.2%
CC(C)(C)Nc1nc(N2CCCC2)nc(N2CCCC2)n1 | inactive: 5.42%
CC1(C)Oc2ccc3ccc(=O)oc3c2/C(=C/Nc2cccc(O)c2)C1=O | inactive: 11.6%
CC(C)c1ccc(/C=C2\C(=O)N(CCN3CCOCC3)C(=S)N2C)cc1 | inactive: 14.4%
O=C1Nc2ccccc2/C1=N\N=C\c1ccc(O)c(O)c1 | inactive: -11%
CCC(C)NC(=O)Cn1c(COc2ccc(Cl)cc2Cl)nc2ccccc21 (centres undefined) | inactive: 11.4%
O=C(CCCn1c(=O)c2sccc2n(CC(=O)NCC2CCCO2)c1=O)NCc1ccco1 (centres undefined) | inactive: -8.18%
Cc1[nH]c2ccc(C(=O)N3CCC(C(N)=O)CC3)cc2c1C | inactive: 14.7%
Cc1cc(NC(=O)C(C)SCC(=O)N(C)Cc2c(F)cccc2Cl)no1 (centres undefined) | inactive: 24.7%
COc1cccc(-c2ccc3c(c2)N(Cc2ccc(F)cc2)C(=O)C(C)S3)c1 (centres undefined) | inactive: 5.17%
Cc1cc(C)nc(SCC(=O)Nc2ccc(S(=O)(=O)Nc3ncccn3)cc2)n1 | inactive: 1.26%
C=CCN1C(=O)C(CC(=O)Nc2ccccc2)S/C1=N/c1nccs1 (centres undefined) | inactive: -13.5%
CCC(C)(C)NC(=O)CN(C(=O)C(=O)Nc1ccc2c(c1)OCCO2)N1CCOCC1 | inactive: -23.8%
N/C(=N\OC(=O)CCCOc1ccccc1)c1ccncc1 | inactive: 17.3%
Cc1cc(C)cc(C(=O)NCC(=O)OCC(=O)c2cc(C)n(CC(F)(F)F)c2C)c1 | inactive: -6.67%
Cc1cc(C)n(-c2nc3ccccc3nc2N2CCN(S(=O)(=O)c3cccc(C#N)c3)CC2)n1 | inactive: 9.88%
COc1ccc(C(=O)c2cccc(C(=O)c3ccc(OC)c(C)c3)c2)cc1C | inactive: -3.59%
Cc1cc(NC(=O)CSc2nnc(Nc3ccccc3F)s2)no1 | inactive: -17%
O=C(NCc1cccnc1)c1ccc2sc([C@H]3C[C@H](O)[C@@H](CO)O3)nc2c1 | inactive: 0.269%
COc1ccc(NC(=O)C2Cc3c(-c4ccc(NC(C)=O)cc4)ccnc3O2)cn1 (centres undefined) | inactive: -1.93%
NS(=O)(=O)c1ccc(Sc2ccc3ccccc3c2)nc1 | inactive: 22.7%
